Measured values: PubChem BioAssay AID1508624 (National Center for Advancing Translational Sciences (NCATS), 2021)
The campaign covered roughly 48,000 compounds. About 120 (0.25%) were called active. About 4% were inconclusive and are not listed. Calls follow the shape of the dose curve; as a rule, active = well fitted activation curve with a large enough effect; inconclusive = small, poorly fitted or top-dose-only effect, or another doubt; inactive = no such curve, though single readings can be large or run the other way. The list shows a part of the results.

Assay: Primary qHTS for Identification of Small Molecule Activators of Huntingtin-Antisense Promoter Activity; also: nearly all actives have a fitted effect of over 55% in size
Settings: HEK293 HTT-AS promoter firefly luciferase reporter, 24 h; series mostly up to 57.5 µM; activity change, positive = activation: at the top concentration
Summary of the method: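 Quantitative HTS used concentration series of up to 57.5 uM final on HEK293 luciferase reporter cells, 24 h at 37 degrees C. Readout was Dual-Glo firefly luminescence.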

Activity change, positive = activation, inactive:
N=C(N)N -2.35%
CCOc1ccccc1NC(=O)C(NS(=O)(=O)c1ccc2c(c1)CCC(=O)N2)c1ccccc1 (stereo not given) -23%
O=C(NC1CCCCCC1)c1cc2c(Cl)nc3ccccc3c2s1 -17.2%
COc1ccc(CNC(=O)c2ccc3c(c2)N(C)C(=O)C2CCCCN32)cc1OC (stereo not given) -4.24%
CC(C)(C)c1ccc(Oc2nc3ccccn3c(=O)c2/C=C(\C#N)c2nc3ccccc3[nH]2)cc1 3.14% [at 11.5 µM, percent change from vehicle, -100% = no light]
O=C(NC1CCOCC1)c1ccc(-c2cc(-c3cn[nH]c3-c3ccccn3)ccn2)cc1 -5.92%
O=C(CCC(=O)N1CC2CCCN2c2ccccc21)NCc1ccccc1 (stereo not given) 0.4%
CCOC(=O)c1ccc(NC(=O)C2=C(C)Nc3nc(SCc4ccc(Cl)cc4)nn3C2c2ccc(C)cc2)cc1 (stereo not given) -7.3%
CCOc1ccc(CC(=O)NCCc2csc(-c3ccc(C(F)(F)F)cc3)n2)cc1 -1.82%
Cc1nn(C(=O)COc2ccccc2)c(C)c1Sc1ccccc1 -16.1%
COc1ccc(NC(=O)CN2C(=O)COc3ccc(S(=O)(=O)Nc4ccccc4)cc32)cc1OC -9.57%
CCN(c1cccc(C)c1)S(=O)(=O)c1ccc2c(c1)NC(=O)CCS2 -20.8%
O=C(COCc1cc(-c2cccs2)on1)Nc1cccc(Cl)c1Cl 16.7%
O=C(NC1CC(=O)N(c2ccccc2)C1)c1ccc(Br)o1 (stereo not given) -9.08%
O=C(NCCCN1CCN(c2cccc(Cl)c2)CC1)Nc1ccccc1C(F)(F)F -17.2%
COc1cccc(CNC(=O)C2CCN(c3nn4c(=O)cc(C)nc4s3)CC2)c1 -12.3%
CCN(CC)CCOC(=O)C1(c2ccccc2)CCCC1 -5.03%
Cc1cccc(N(CC(=O)NCCSCc2ccc(Cl)cc2)S(C)(=O)=O)c1C -26%
CCOc1ccc(NC(=O)c2cc3c(n(-c4ccc(OC)cc4)c2=O)CC(C)(C)CC3=O)cc1 -11.7%
CC(=O)c1cccc(NC(=O)c2cccn2-c2nnc(N3CCCCC3)s2)c1 -4.31%
COc1ccccc1Cn1c(CNS(=O)(=O)c2ccccc2Cl)nc2cccnc21 -30.7%
CNc1nc(-c2ccc3c(N)n[nH]c3c2)cc(N2C[C@@H](C(=O)NC3CCCCC3)CC[C@@H]2C)n1 -25.5%
CCOC(=O)c1ccc2c(c1)N(CC(=O)Nc1ccc(C)cc1C)C(=O)c1ccccc1S2 3.15%
COc1ccc(NC(=O)c2nnn(Cc3nc(-c4cc(OC)c(OC)c(OC)c4)oc3C)c2C)cc1 -5%
CCN(CC)C(=O)Cn1cc(SCC(=O)Nc2ccccc2F)c2ccccc21 -14.8%
Cc1cc(C)c2c(=O)c3c(oc2c1)C(=O)N(Cc1ccc(F)cc1)C3c1cccc(O)c1 (stereo not given) -32.2%
Cc1ccc(CNC(=O)CN(c2ccc(C(C)C)cc2)S(=O)(=O)c2c(C)n[nH]c2C)cc1 -28.8%
CC(C)(C)CC(=O)Nc1nnc2n1CCS2 -0.0544%
COc1ccc(Cn2ccnc2SCC(=O)Nc2ccc(C)cc2C)cc1 -4.39%
O=C(COc1ccc(Cl)cc1)Nc1ccccc1C(=O)OCc1cc(=O)n2ccsc2n1 29.1%
CCCC(=O)NCC(c1ccc2c(c1)OCO2)N1CCOCC1 (stereo not given) -2.55%
COc1ccccc1CNC(=O)CN1C(=O)CSc2c1c(C)nn2-c1ccccc1 -0.988%
CC1CCN(C(=O)CN2CCSc3ccccc32)CC1 -9.97%
O=C(Nc1ccc(SC(F)F)cc1)c1cc(-c2cccs2)on1 23.3%
COC(=O)c1sc2cccc(F)c2c1S(=O)(=O)N1CCN(c2ccccc2OC)CC1 -32.9%
Cc1ccc(-c2cc(NC(=O)C(C)Oc3ccc(C)c(C)c3)on2)cc1 (stereo not given) -10.5%
CC(=O)c1cccc(NC(=O)CCCN2C(=O)COc3ccc(C)cc32)c1 -20.9%
CCOc1ccc(C(=O)Nc2nnc(S(=O)(=O)N(CC)c3ccccc3C)s2)cc1 -33.1%
O=C(NCCc1ccccc1)c1ccc2c(c1)CCN2S(=O)(=O)c1ccc(Br)cc1 -2.75%
COc1ccc(N2CC(c3nc(-c4cc(OC)c(OC)c(OC)c4)no3)CC2=O)cc1Cl (stereo not given) -18.7%
O=C(CCS(=O)(=O)c1cccs1)Nc1ccc(C(=O)Nc2cccc(Cl)c2)cc1 5.67%
COc1cc(OC)cc(C(=O)N2CCC(c3ccncc3)CC2)c1 -14.6%
CCNc1nc2c(c(=O)[nH]c(=O)n2C)n1CC(O)COc1ccc(Cl)cc1Cl (stereo not given) -38.6%
CCC(=O)N1CCCc2cc(S(=O)(=O)N3CCC(C(=O)Nc4ccc(F)c(F)c4)CC3)ccc21 -23.6%
COc1ccc(CNc2ccc3cc(S(=O)(=O)N4CCCCC4)ccc3n2)cc1 -36.8%
Cc1ccc(C)c(NC(=O)CN2C(=O)CSc3nc(C)cc(C)c32)c1 -11%
O=C(Cc1ccccc1)Nc1c(C(=O)N2CCN(c3ccc(F)cc3)CC2)oc2ccccc12 -19.7%
CCOC(=O)c1cnc2cc(C(F)(F)F)ccc2c1N1CCN(c2ccc(F)cc2)CC1 -13.3%
COc1ccccc1CNC(=O)C1CCCN(c2nn3cc(-c4ccc(F)cc4)nc3s2)C1 (stereo not given) -61%
Cc1ccc(Cn2ccn(CC(=O)Nc3ccccc3C(F)(F)F)c(=O)c2=O)cc1 -7.96%
CCOc1ccc(CCNC(=O)CS(=O)Cc2nc(-c3ccc(C)cc3)oc2C)cc1OCC (stereo not given) -20.3%
Cc1c(C(N)=O)cc([N+](=O)[O-])cc1[N+](=O)[O-] -13.8%
COC(=O)c1ccccc1NC(=O)CSc1nc(-c2ccccc2)cc(C(F)(F)F)n1 -19.5%
CC(=O)c1ccc(NC(=O)c2ccc3c(c2)N(Cc2cccc(Cl)c2)C(=O)c2ccccc2S3(=O)=O)cc1 -12.5%
CCOc1ccccc1NC(=O)Cn1c(=O)n(CCCC(=O)NCCOC)c(=O)c2cc(OC)c(OC)cc21 -5.48%
CCOC(=O)c1c(C)[nH]c(C)c1S(=O)(=O)N1CCC(C(=O)Nc2ccc(F)cc2F)CC1 -24%
Cc1cc(Cl)ccc1NC(=O)CN1C(=O)CSc2ccc(S(=O)(=O)N(C)C)cc21 -9.91%
CCOCCc1nn2c(=O)cc(COC(=O)COc3ccccc3Cl)nc2s1 -7.99%
COc1ccc(CNC(=O)Cn2ccc3cc(S(=O)(=O)N4CCCCC4)ccc32)c(OC)c1 -28.3%
Cc1ccc(NC(=O)CN2CCCN(Cc3ccccc3Cl)S2(=O)=O)c(C)c1 -19.3%
COc1ccccc1CNC(=O)CCc1c(C)nc2cc(-c3ccccc3OC)nn2c1C -37.5%
C/C=C/C(=O)N(CC)c1ccccc1C -0.683%
CC(=O)c1ccc(NS(=O)(=O)c2cc3[nH]c(=O)c(=O)[nH]c3cc2C)cc1 -5.18%
Cc1ccc(C)c(N2CCN(C(=O)Cn3ncc4c(=O)oc5ccc(C)cc5c43)CC2)c1 -3.73%
COc1ccc(S(=O)(=O)NCCc2nnc3ccc(SCC(=O)Nc4ccc(C(F)(F)F)cc4)nn23)cc1 -28.4%
COc1cccc(/C=C/c2nc(C#N)c(N3CCCCC3)o2)c1 -5.41%
O=C(c1cnc2cc(-c3ccccc3)nn2c1)c1cc([N+](=O)[O-])ccc1O -27.6%
CCCn1c(=N)c(C(=O)NCc2cccnc2)cc2c(=O)n3cc(C)ccc3nc21 -5.07%
O=C(C1CCCN(S(=O)(=O)c2cccc3nonc23)C1)N1CCN(c2cccc(Cl)c2)CC1 (stereo not given) -9.01%
CCc1ccc(CSc2nc(-c3ccccc3OC)nc3c2Cc2c(CO)cnc(C)c2O3)cc1 -14.2%
CCOc1ccccc1CNc1ncnc2c1nc1n2CCCC1 -29.8%
CSc1ccc(CCNC(=O)CCc2c(C)nc3c(-c4ccccc4)c(C)nn3c2C)cc1 -38.5%
Cc1ccccc1Cn1nc(C)c(NC(=O)c2cc(-c3ccc(F)cc3)on2)c1C -10.1%
Cc1cccc(-n2c3c(cc(-c4nc(-c5ccc(Cl)cc5)cs4)c2=O)C(=O)CC(C)(C)C3)c1 -13.4%
COC(=O)c1ccc2c(=O)n(CCCCCC(=O)NCc3ccccc3)c(=O)[nH]c2c1 -1.11%
C=C[C@H]1CN2CC[C@H]1C[C@@H]2[C@@H](O)c1ccnc2ccc(OC)cc12 -4.4%
O=C(CN1CCSc2ccccc21)N1CCN(c2ccccc2)CC1 -22.4%
CCn1cc(C2N3CC4(CC)CN2CC(CC)(C3)C4=O)c2ccccc21 (stereo not given) -0.895%
CCOC(=O)c1c(NC(=O)/C=C/c2ccc(OC)c(OC)c2)sc(C(C)=O)c1C -13.4%
Cc1ccc(OCc2nc(-c3ccc(C(=O)N4CCN(c5cc(Cl)ccc5C)CC4)cc3)oc2C)cc1 -23.6%
O=S(=O)(c1ccccc1)c1nc(-c2cccs2)oc1SCc1ccccc1Cl -2.75%
Oc1cn2c(n1)Nc1ccc(Cl)c(Cl)c1C2 -2.84% [at 25.1 µM, percent change from vehicle, -100% = no light]
CCOC(=O)CC(=O)CSc1nc2ccccc2c(=O)n1-c1ccc(C(=O)NCCOC)cc1 -3.1%
CS(=O)(=O)c1cccc(CNc2nc(Nc3ccc4c(c3)CCC(=O)N4)ncc2C(F)(F)F)c1 15.3%
COC(=O)c1ccc(C(=O)OC)c(NC(=O)N2CC3CCCN3c3ccccc32)c1 (stereo not given) -26.6%
CCOc1ccccc1NC(=O)CSc1nc2c([nH]c3ccccc32)c(=O)n1-c1ccccc1 -26.7%
O=C(CC1NCCNC1=O)Nc1ccccc1F (stereo not given) -6.26%
CCOC(=O)c1c(-c2ccc(C)cc2)csc1NC(=O)c1cc(=O)c2cc(Cl)ccc2o1 -5.33%
Cc1ccc(Cl)cc1N1CCN(C(=O)c2cc3c(=O)n(C)c4ccccc4c3s2)CC1 -13%
CCn1c(=O)sc2cc(NC(=O)c3cccc(OC)c3)ccc21 12.3%
COc1ccc(C2CC(=O)c3c(C)nc(N4CCN(C=O)CC4)nc3C2)c(OC)c1 (stereo not given) -23.7%
CCN1CCN(c2nnc(-n3cccc3C(=O)Nc3cccc(OC)c3)s2)CC1 11.6%
O=C(Cn1ccn(-c2ccc(F)c(F)c2)c(=O)c1=O)c1ccc(F)cc1 -19%
CC(C)c1nn2c(=O)cc(COC(=O)CNC(=O)c3ccccc3Cl)nc2s1 -3.29%
CCOc1ccc(Cn2c(CNS(=O)(=O)c3c(C)cc(C)cc3C)nc3cccnc32)cc1 -11.4%
